Test results: PubChem BioAssay AID1794842 (National Center for Advancing Translational Sciences (NCATS), 2023)
The campaign covered roughly 2,800 compounds. Fewer than 10 were called active. The call rests on the fitted dose curve; in most records, active means well fitted curve in the direction sought with a large enough effect; inconclusive means small, poorly fitted or top-dose-only effect, or another doubt; inactive means no such curve, though single readings can be large or run the other way. This is one part of the list.

These compounds were tested against Metallo-beta-lactamase type 2 (Klebsiella pneumoniae) (UniProt C7C422) (assay: qHTS to identify inhibitors of the New Delhi Metallo-beta-lactamase (NDM): Meropenem screen against the machine-based learning selections.). Details: Purified NDM-1, meropenem hydrolysis, absorbance 300 nm; at 38.4 µM (top of the series) unless noted.
UniProt C7C422, sequence (C7C422 whole entry, looked up): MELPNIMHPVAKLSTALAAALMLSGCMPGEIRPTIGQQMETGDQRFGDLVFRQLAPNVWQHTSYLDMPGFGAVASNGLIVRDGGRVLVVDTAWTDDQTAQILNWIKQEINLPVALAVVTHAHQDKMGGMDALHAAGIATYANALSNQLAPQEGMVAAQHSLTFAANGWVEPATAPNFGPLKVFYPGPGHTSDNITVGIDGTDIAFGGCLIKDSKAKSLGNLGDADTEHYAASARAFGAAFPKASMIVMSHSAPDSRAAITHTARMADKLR
From the text: Assay Submitter (PI): James Inglese Ph.D., Patricia Dranchak Ph.D., Mahesh Aitha Ph.D. Assay Development and Screening Technology Laboratory (ADST) National Center for Advancing Translational Sciences (NCATS), Rockville, MD National Institute of Health (NIH), Bethesda, Maryland The metallo-beta-lactamases (MBL) are a main antibiotic resistance mechanism evolved by bacteria. There is an urgent clinical need for MBL inhibitors to mitigate this growing threat. To support a machine-based learning study, qHTS has been used to experimentally test inhibitors identified by prediction tools.
PROTOCOL TABLE (as described by Inglese et al., 2007) SEQUENCE No. (e.g., 1, 2, 3, etc.); […] (e.g., enzyme, Incubation, Reagent, etc.); VALUE; DESCRIPTION Primary Screen 1; NDM-1; 4 uL of 3 nM enzyme [2 nM final] in 50 mM HEPES (pH 7.0), 1 uM […], 0.01% Tween20; Use BioRaptr to dispense into two sets of Aurora black, clear bottom high base 1536-well plates 2; Compounds; 23 nL; Use Pin Tool (Wako) to transfer DMSO control and library compounds in DMSO 3; Incubate; >30 min 4a; Reagent; 2 uL of 50 uM nitrocefin [16.7 uM final] to one set of assay plates 4b; Reagent; 2 uL of 150 uM meropenem [50 uM final] to second set of assay plates 5a; Incubate; 15 min 5b; Incubate; 30 min 6a; Detector; Absorbance at 485 nm (bandwidth = 5 nm, 25 flashes/well) on Tecan Infinity 6b; Detector; Absorbance at 300 nm (bandwidth = 5 nm, 25 flashes/well) on Tecan Infinity NOTES (numbers refer to sequence above) 1; Column 1 of each plate received assay buffer without enzyme and columns 2-48 received enzyme for a final assay concentration of 2 nM. 2; Control plate contained DMSO in columns 1, 2, 3, and 4. 3; Compound interaction with enzyme. 4; Nitrocefin and meropenem substrates were prepared in the same assay buffer as step 1 for a final assay concentration of 16.7 uM and 50 uM, respectively, and added to all wells across respective sets of assay plates. 5; Default reader settings were applied for absorbance read at 485 nm (nitrocefin) or 300 nm (meropenem), bandwidth = 5 nm, 25 flashes/well. References: Inglese J, Shamu CE, Guy RK. 2007. Reporting data from high-throughput screening of small-molecule libraries. Nat Chem Biol. doi:10.1038/nchembio0807-438 Yasgar A, Shinn P, Jadhav A, Auld D, Michael S, Zheng W, Austin CP, Inglese J, Simeonov A. 2008. Compound Management for Quantitative High-Throughput Screening. J Lab Autom 13:79 - 89. doi:10.1016/j.jala.2007.12.004
Further: % of control where 0% means no effect.

Activity change, negative = inhibition, inactive:
Cn1cc(CN2CCOC[C@H](Oc3ccc(S(C)(=O)=O)cc3)C2)c2ccccc21 5.48% [at 57.5 µM]
CC(C)c1cc(CN(C)C(=O)CN2C(=O)COc3cccnc32)on1 -0.366%
CC1(C(=O)NCc2ccccc2)COCc2cnc(Nc3ccccc3)nc21 (stereo not given) 1.53% [at 57.5 µM]
COc1cc2c(cc1OC)CN(C(=O)C[C@@H]1CCNC[C@@H]1Cc1cc(CN3CCCCC3)on1)CC2 0.985%
Fc1ccc(-c2nnc3ccc(NC4CCC4)nn23)nc1 10.6% [at 76.7 µM]
CN(C)CCN(C)CC[C@H]1CN(C(=O)c2ccc(F)cc2)CC[C@H]1CC(=O)O 43.7% [at 57.5 µM]
CC(C)C[C@@H]1N[C@H](C(=O)NC(C)C)Cc2cn(Cc3ccncc3)c3cccc1c23 3.63% [at 57.5 µM]
COc1ccc(CN2CC3(C2)C(=O)N(Cc2cccc(Cl)c2)C(=O)[C@@H]2C[C@@H](O)CN23)c2ccccc12 -4.6%
O=C(c1cccnc1)N1CC[C@H](c2nnc(Cc3ccccc3)o2)C1 -3.47% [at 57.5 µM]
Cc1noc2c(-c3cccc(O)c3)cc(-c3ccccc3)nc12 2.12% [at 57.5 µM]
CCn1cc(CN2CCC(Oc3ccc4ccccc4c3)(C(=O)O)CC2)cn1 5.91%
CCC1=C(C(=O)OC)C(c2ccccc2OC)N2C(CC(=O)N3CC(C)OC(C)C3)=CSC2=N1 (stereo not given) 8.79%
Oc1ccccc1CN1CCNc2cc(Nc3ccccc3)ncc2C1 4.83% [at 57.5 µM]
COc1ccc(N2CCN(C3CCCN(C(=O)C(C)(C)N)C3)CC2)cc1 (stereo not given) 44.4%
CC(C)(O)CCc1cccc(C(=O)NCC(O)c2ccccc2Cl)c1 (stereo not given) -0.8%
CC(=O)NCC1(COc2cccnc2)C[C@@H](O)[C@@H](O)C1 (stereo not given in full) 38.7% [at 76.7 µM]
CC(=O)c1ccc(NC(=O)N2C[C@@H]3C[C@H](C2)c2ccc(NC(=O)C4CCCCC4)c(=O)n2C3)cc1 3.71%
CS(=O)(=O)N1C[C@H]2CCN(C(=O)c3ncccc3F)C[C@H]21 1.01%
O=C(c1cn2ccccc2n1)N1C[C@@H](CO)[C@H](c2ccncc2)C1 10.1%
CC(C)NC(=O)C[C@@H]1O[C@H](CNCc2cccc(Cl)c2)[C@@H](O)[C@H]1O 61.2% [at 57.5 µM]
CCn1nc(CC(C)C)cc1C(=O)N1CCN(CCn2cccc2)CC1 18.2%
CN1CCCC1c1nc(C2CN(C(=O)c3ccsc3)C2)no1 (stereo not given) 1.31%
O=C1[C@H]2CN(S(=O)(=O)c3ccc(F)cc3)CCN2C(=O)N1CCO 3.06% [at 57.5 µM]
COc1ccccc1-c1[nH]nc2ncc(C(=O)NCCc3ccccn3)nc12 5.94% [at 57.5 µM]
Cc1oc(C(O)c2cccc(O)c2)nc1C(=O)Nc1ccc2c(c1)CNC2=O (stereo not given) 8.63% [at 57.5 µM]
COc1ccc(CN2CCNc3cc(Nc4ccccc4)ncc3C2)cc1 -2.91% [at 57.5 µM]
CCC(=O)N1CCC(c2nc(C3CCOCC3)no2)C1 (stereo not given) 0.793%
c1ccc(-c2cc3c(cn2)CN(Cc2ccc4[nH]ccc4c2)CCN3)cc1 3.54% [at 57.5 µM]
COc1cccc(C(=O)N2CCOC[C@H](Oc3cccnc3)C2)c1 -2.14% [at 57.5 µM]
CCCS(=O)(=O)N1CCC(Cc2nc(-c3cccnc3)n[nH]2)C1 (stereo not given) -0.189%
COc1ccc(CC2(CO)CCNCC2)cc1 0.626%
CC1(C)[C@H](Cc2cc(COc3ccccc3)on2)C[C@@H]1NC(=O)Nc1ccccc1 3.99% [at 57.5 µM]
NC(=O)Cc1c[nH]c2ncc(-c3ccc(Oc4ccccc4)cc3)cc12 -0.408% [at 57.5 µM]
O=c1c2nc(Nc3cccc(F)c3)ccc2ncn1Cc1ccccc1 7.45% [at 57.5 µM]
CCN(CC)C(=O)[C@@H]1CCC[C@@H](NC2CCOCC2)CN(C)C(=O)C1 2.69% [at 57.5 µM]
O=C(Cc1c[nH]c2ncc(-c3cccnc3)cc12)Nc1ccccc1 9.49% [at 57.5 µM]
O=C(c1ccn[nH]1)N1CCN(Cc2cnn3cccnc23)CC(O)C1 (stereo not given) -1.33%
CC1(C(=O)NCc2ccncc2)CCCc2cnc(Nc3ccccc3)nc21 (stereo not given) 6.27% [at 57.5 µM]
Cc1ccsc1C(=O)N1CCN(c2cc(-c3ccccc3)[nH]n2)CC1 0.473%
CC[C@H]1CN(C(=O)Nc2cccc(C(F)(F)F)c2)CC[C@H]1CC(=O)NC1CC1 0.437% [at 57.5 µM]
CCCC1c2nccn2CCCN1C(=O)c1ccoc1C (stereo not given) -0.934%
CC(=O)N[C@@H]1C=C[C@@H](c2c(C)nn(-c3ccc(C)c(Cl)c3)c2C)C1 -2.38% [at 57.5 µM]
Cc1c(-c2ccc(F)cc2)[nH]c2ccc(CNC(=O)c3n[nH]c4c3CCCC4)cc12 1.02%
CC1=C[C@@H](CNC(=O)c2ccc(F)cc2)[C@H](C(C)C)C[C@H]1Cc1nnc(-c2ccncc2)o1 -0.185%
O=C1Cc2c(-c3cccc4ccccc34)n[nH]c2CN1Cc1ccccc1 7.99% [at 57.5 µM]
CC(=O)N[C@H]1C[C@@H](Cc2cc(CN3CCCCC3)on2)C1(C)C -1.91% [at 57.5 µM]
c1ccc(CNc2ncc(CN3CCC4(CCNCC4)C3)cn2)cc1 63.7%
CCNC(=O)N1C[C@@H](F)[C@@H](OCc2nc3ccc(C)cc3[nH]2)C1 -3.74% [at 57.5 µM]
COc1ccc(C2Cn3nnc(C(=O)N4CCN(C(=O)c5cc(F)ccc5Cl)CC4)c3CO2)cc1 (stereo not given) -0.346%
COc1ccc(CN2C[C@H]3CN(Cc4ccc5c(c4)OCCO5)CCN3C2=O)cc1 1.8% [at 57.5 µM]
